Biological target: influenza A virus (IAV) PA-Nter fragment (amino acids 1-209) (Influenza A virus, UniProt P31343)
Experiment: FRET endonuclease activity assay

In the case of O=C(NO)c1cc(NS(=O)(=O)Cc2cc(Cl)cc(Cl)c2)ccn1, the IC50 is reported as 590 nM.
O=C(NO)c1cc(NS(=O)(=O)Cc2cccc(Cl)c2)ccn1 showed an IC50 of 2000 nM.
For O=C(NO)c1cc(NS(=O)(=O)Cc2cccc(Br)c2)ccn1, the IC50 was 1800 nM.
